Measurements from PubChem BioAssay AID493208 (National Center for Advancing Translational Sciences (NCATS), 2011).
In all, about 44,000 compounds went through this assay and about 340 (0.77%) were called active. About 5% were inconclusive and are not listed. Calls come from the whole dose curve; as a rule, active = well fitted inhibition curve with a large enough effect; inconclusive = small, poorly fitted or top-dose-only effect; inactive = flat fitted curve, though single readings scatter. The list shows a part of the results.

Assay: Acumen qHTS Assay for Inhibitors of the mTORC1 Signaling Pathway in MEF (Tsc2-/-, p53-/-) Cells: Sytravon;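 note: plate controls were DMSO for no effect and rapamycin for full effect; nearly all actives have a fitted effect of over 50% in size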
Conditions: phospho-rpS6 immunofluorescence/PI, 24 h; series mostly up to 38.3 µM; activity change, negative = inhibition: at the top concentration
In short: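 Compounds act on Tsc2-/-, p53-/- fibroblasts carrying an empty vector for 24 h before fixation and dual staining for phospho-S6 and DNA (propidium iodide). Values are percentages of cells above a rapamycin-defined pS6/PI threshold.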

SMILES	activity change, negative = inhibition
COc1ccc(-c2c3c(nc4sc(C(=O)Nc5cccc(OC)c5)c(N)c24)CC(C)(C)CC3=O)cc1	inactive: 5.25%
Cc1cc(C)n2nc(CNS(=O)(=O)c3cccc(Cl)c3)nc2n1	inactive: -1.1%
Cc1cc(C(=O)N2CCN(c3ccccc3F)CC2)c2c(C)nn(-c3ccccc3)c2n1	inactive: -0.0544%
Cc1cc(C)c2oc(-c3cccc(NC(=O)c4cccc(F)c4)c3C)nc2c1	inactive: 0.309%
CCC(C)NC(=O)c1ccc(CNS(=O)(=O)c2ccc3c(c2)C(C)(C)C(=O)N3C)cc1 (centres undefined)	inactive: -3.08%
CCc1ccc(S(=O)(=O)Nc2ccc3c(c2)sc(=O)n3C)cc1	inactive: 3.2%
Cc1ccc(Cl)cc1NC(=O)CN1C=NS(=O)(=O)c2ccccc21	inactive: -2.13%
Cc1cccc(Cn2c(=O)n(-c3cc(C)cc(C)c3)c(=O)c3oc4ccccc4c32)c1	inactive: -3.27%
CCc1nn(CCCC(=O)NCc2ccccc2OC)c(=O)c2cc3occc3n12	inactive: 0.25%
Cc1cc(C)c2c(n1)nn1c(C)c(CCC(=O)Nc3cccc(C)c3C)c(C)nc21	inactive: 0.714%
Cc1ccc(Cl)cc1N1CCN(C(=O)C2CCN(S(=O)(=O)c3cn(C)cn3)CC2)CC1	inactive: 2.28%
Cc1cccc(N2CCN(CCCNC(=O)Cn3ncc4c([nH]c5ccccc54)c3=O)CC2C)c1 (centres undefined)	inactive: -8.58%
COc1ccc(N(C)C(=O)Cn2cnc3sc(C)c(S(=O)(=O)N4CCN(c5ncccn5)CC4)c3c2=O)cc1	inactive: 7.49%
Cc1ccc(-c2nc3cccc(C)n3c2Nc2ccc3c(c2)OCCO3)cc1	inactive: -8.45%
O=C(NCCS(=O)(=O)N1CCN(c2cccc(Cl)c2)CC1)C(c1ccccc1)c1ccccc1	inactive: -1.31%
CCOCCCn1c(=N)c(C(=O)NC2CCCCC2)cc2c(=O)n3ccccc3nc21	inactive: -20.6%
COC(=O)c1c(NC(=O)c2cc(=O)c3c(C)cc(C)cc3o2)sc2c1CCCC2	inactive: -5.46%
Cc1cccc(NC(=O)CN(c2ccc(C(C)C)cc2)S(=O)(=O)c2c(C)nn(C)c2C)c1C	inactive: -10.2%
CCOC(=O)C1CCN(S(=O)(=O)c2cc(-c3onc(C)c3C)ccc2C)CC1	inactive: 2.97%
CC(=O)N1CCCc2cc(S(=O)(=O)N3CCC(C(=O)N(Cc4ccccc4)C(C)C)CC3)ccc21	inactive: -6.61%
COCCn1c(C)cc(O)c(C(c2ccccc2)N2CCC(C)CC2)c1=O (centres undefined)	inactive: 9.46%
CCc1ccccc1Nc1cc(C(=O)NCc2ccc(C)cc2)c2ccccc2n1	inactive: -0.0204%
COc1ccc(N2C(=O)CSC23C(=O)N(C)c2ccccc23)cc1Cl (centres undefined)	inactive: -0.54%
O=C(c1c2c(nc3ccccc13)C(=O)N(C1CCCCC1)C2)N1CCN(c2ccc(F)cc2)CC1	inactive: -4.79%

SMILES	activity change, negative = inhibition
CCOC(=O)N1CCN(C(=O)c2ccc3c(c2)N(Cc2ccccc2F)C(=O)c2ccccc2S3=O)CC1 (centres undefined)	inactive: 0.14%
CCOC(=O)c1c(S(=O)(=O)N2CCCC(C(=O)Nc3ccc(OCC)cc3)C2)c(C)n(C)c1C (centres undefined)	inactive: -6.33%
COc1ccc(C)cc1Nc1nc2c(S(=O)(=O)c3cccc(Cl)c3)nnn2c2ccsc12	inactive: -1.5%
Cc1ccc(S(=O)(=O)c2cn(Cc3cccc(F)c3)c3cc(N4CCCC4)c(F)cc3c2=O)cc1	inactive: -3.55%
Cc1ccc(-c2cc(NC(=O)c3ccccc3Cl)on2)cc1	inactive: 5.71%
CCCOc1ccccc1-c1nc(SCC(=O)c2ccccc2)n[nH]1	inactive: -5.44%
CCOc1cc(CNS(=O)(=O)c2ccc3c(c2)CC(=O)N3C)cc(OCC)c1OCC	inactive: 1.8%
O=C(Nc1ccc(C(=O)N2CCN(c3ccc(F)cc3)CC2)cc1)c1nsc2ccccc12	inactive: 16.6%
CCN1CCN(CCCNC(=O)c2ccc3nc(Cc4ccc(OC)cc4)oc3c2)CC1	inactive: -0.308%
Cc1cc(C)n(C(C)CC(=O)NCc2ccccc2C)n1 (centres undefined)	inactive: -4.7%
CC(=O)Nc1ccc(S(=O)(=O)N2CCC(c3ccncc3)CC2)cc1	inactive: -5.32%
COc1ccc(Br)cc1C(=O)Nc1ccc2oc(-c3cccnc3)nc2c1	inactive: -3.16%
CCCCN(CCCC)c1ncnc2c1cnn2-c1cccc(C)c1	inactive: 0.715%
COc1ccccc1CNC(=O)Cc1c(C)c2c(cc(C)c3c(C)c(C)oc32)oc1=O	inactive: 1.11%
COc1ccc(OCc2ccc(-c3nc(C#N)c(N4CCN(C)CC4)o3)o2)cc1	inactive: -4.59%
COc1ccc(CCNC(=O)CCCn2c(=O)c3cccn3c3cccnc32)cc1OC	inactive: 0.712%
Cc1ccc2c(CN3CCN(Cc4ccccc4Cl)CC3)cc(=O)oc2c1	inactive: -10.7%
COc1ccc(C2CC(=O)Nc3c2c(=O)nc2c(C)cccn32)cc1OC (centres undefined)	inactive: -3.25%
CCOC(=O)c1c(NC(=O)COc2cccc(C(F)(F)F)c2)sc2c1CCC(C)C2 (centres undefined)	inactive: -7.28%
CCN(CC)c1nn2c(=O)c(C(=O)NCCc3ccc(C)cc3)cnc2s1	inactive: 3.46%
COc1ccc(NC(=O)c2ccc(CN3C(=O)CCn4nc(C)cc43)cc2)c(OC)c1	inactive: 3.98%
CCn1c2ccccc2c2nnc(N3CCN(c4ccc(F)cc4)CC3)nc21	inactive: 3.17%
Cc1nc2sc(C(=O)N(C)Cc3ccccc3)c(NC(=O)c3ccccc3)c2c(C)c1Cl	inactive: -3.48%
CCOC(=O)c1cc2c(=O)n3ccccc3nc2n(CC2CCCO2)c1=NC(=O)c1ccc(C(C)(C)C)cc1 (centres undefined)	inactive: 6.69%

SMILES	activity change, negative = inhibition
CCOc1ccc(CNC(=O)c2ccc(Sc3ccc(Cl)cc3)c(NC(C)=O)c2)cc1	inactive: -14.6%
COc1ccc(NC(=O)CSc2cn(CC(=O)N3CCCCC3)c3ccccc23)c(OC)c1	inactive: 0.726%
CCCC(=O)Nc1ccc2c(c1)nc(CN1CCN(C(=O)OCC)CC1)n2C(C)C	inactive: -17.7%
Cc1cc(C)cc(Nc2ncnc3c2nc2n3CCCC2)c1	inactive: 7.24%
COc1ccc(N2CC(NC(=O)COc3ccccc3F)CC2=O)cc1OC (centres undefined)	inactive: 0.936%
COc1ccc(C)c2sc(NC(=O)c3ccc(S(=O)(=O)N4CCCCC4)cc3)nc12	inactive: 9.73%
CC(C)CCNC(=O)CN1C(=O)CCn2nc(-c3cn(C)c4ccccc34)cc21	inactive: 4.31%
CCCOc1ccc(NC(=O)CC2C(=O)N(c3ccc(C)cc3)C(=O)N2C(C)C)cc1 (centres undefined)	inactive: -3.47%
CCCOc1ccc(/C=C/C(=O)Nc2sc(C)c(C)c2C(=O)OCC)cc1OC	inactive: 8.85%
CCOc1ccc(S(=O)(=O)NCCc2csc(-c3ccc(Cl)cc3)n2)cc1	inactive: 0.0742%
Cc1nc(S(=O)(=O)N2CCN(c3ccc(Cl)cc3)CC2)cn1C	inactive: 4.01%
Cc1nnc(SCc2cc(=O)c3ccccc3[nH]2)s1	inactive: -15.4%
CCOc1ccc(CCNC(=O)c2ccc(-c3nc(CSc4ccc(C)cc4)c(C)o3)cc2)cc1	inactive: 0.143%
O=C(COc1ccccc1)Nc1sc2c(c1C(=O)Nc1ccccc1Cl)CCCCC2	inactive: 9.63%
CCN(Cc1nc(-c2cccc(C)c2)no1)S(=O)(=O)c1ccc(C)cc1	inactive: -10.9%
COc1ccc(N(CC(=O)Nc2ccc(C)c(C)c2)S(=O)(=O)c2ccc(C)cc2)cc1OC	inactive: 9.67%
Cc1cccc(C)c1NC(=O)CN1C(=O)CCSc2ccc(S(=O)(=O)N3CCCC3)cc21	inactive: -0.822%
COC(=O)c1cc(NC(=O)Nc2ccc3snnc3c2)cc(C(=O)OC)c1	inactive: -6.88%
Cc1ccc(NC(=O)C(=O)NCC(c2cccnc2)N2CCOCC2)cc1 (centres undefined)	inactive: 8.55%
CC1CCN(C(=O)c2ccc3c(c2)N(Cc2ccccc2F)C(=O)c2ccccc2S3(=O)=O)CC1	inactive: -5.39%
COc1ccc(S(=O)(=O)n2nc(C)c(S(=O)(=O)N3CCCCC3)c2C)cc1	inactive: -1.55%
Cc1c(Cl)cccc1-n1ncc(C(=O)N2CCN(C)CC2)c1C1CCN(C(=O)OC(C)(C)C)CC1	inactive: -1.67%
COc1ccc(CNC(=O)Cn2nc(C)n3cccc3c2=O)cc1	inactive: 3.42%
COc1ccc(-c2nc(SCC(=O)NC3CCCC3)c(-c3ccc(OC)cc3)[nH]2)cc1	inactive: -17.5%

SMILES	activity change, negative = inhibition
COc1ccccc1N1CCN(C(=O)c2cc3c(=O)n(C)c4ccccc4c3s2)CC1	inactive: -5.83%
C=C(C)Cn1c(SCC(=O)Nc2ccccc2C)nc2sc3c(c2c1=O)CCCC3	inactive: 5.09%
COc1ccccc1-c1noc(-c2ccc(N3CCOCC3)c([N+](=O)[O-])c2)n1	inactive: 2.49%
CC(=O)c1ccc(N2CCN(c3ncnc4c3c(-c3ccccc3)cn4-c3ccc(C)c(Cl)c3)CC2)cc1	inactive: 10.8%
CC(C)Cn1c(=O)c2ccccc2n2c(CCC(=O)N3CCN(c4cccc(Cl)c4)CC3)nnc12	inactive: -9.68%
COCCCN(Cc1ccco1)C(=O)c1cc2c(s1)-c1ccccc1OC2	inactive: -6.63%
COc1ccc(CCNC(=O)Cn2cc(C(=O)c3ccc(Cl)cc3)c(=O)c3ccc(C)nc32)cc1OC	inactive: -4.76%
CCOC(=O)C1CCN(c2nc3c(S(=O)(=O)c4ccc(Br)cc4)nnn3c3ccsc23)CC1	inactive: -1.88%
FC(F)(F)c1cccc(-n2cc(-c3ccccc3)c3c(N4CCCCC4)ncnc32)c1	inactive: 8.02%
CCCN(CCC)CCNC(=O)Cn1cnc2sc(C)c(S(=O)(=O)N3CCC(C)CC3)c2c1=O	inactive: -1.61%
COc1ccccc1CNC(=O)CN1C(=O)CCc2cc(S(=O)(=O)N3CCCCC3)ccc21	inactive: 12.8%
COc1ccc(C(=O)NCCn2cc(SCc3cccc(F)c3)c3ccccc32)cc1OC	inactive: 5.21%
O=C(CSc1nc(-c2cccs2)nc2cc(=O)[nH]n12)Nc1ccccc1	inactive: 0.383%
CCc1ccc(NC(=O)CC(c2cc(OC)c(OC)c(OC)c2)N2Cc3ccccc3C2=O)cc1 (centres undefined)	inactive: 0.828%
COc1ccc(S(=O)(=O)N(CCc2ccccc2)CC(=O)NCc2ccccc2)cc1	inactive: -6.12%
COCCN1C(=O)c2oc3cc(C)cc(C)c3c(=O)c2C1c1cccc(O)c1 (centres undefined)	inactive: -2.51%
COc1ccc(CNC(=O)c2cc3c(-c4ccc(Cl)cc4)nn(C)c3s2)cc1	inactive: -12.6%
CCOC(=O)c1cccc(NC(=O)Cn2nc3c(cc2=O)CCCC3)c1	inactive: 0%
Cn1c(=O)n(C)c2cc(NS(=O)(=O)c3ccc(F)cc3)c(NCc3ccccc3)cc21	inactive: -21.6%
Cc1ccc(N2CC(C(=O)NCCS(=O)(=O)N3CCN(c4ccccc4)CC3)CC2=O)cc1 (centres undefined)	inactive: 13%
Cc1ccc(-c2c(CN3CCN(c4cc(C)ccc4C)CC3)csc2C)cc1	inactive: -15.1%
Cc1c(C(=O)NC(C)c2ccccc2)sc2ncnc(N(C)C3CCCCC3)c12 (centres undefined)	inactive: -6.65%
